The list shows a part of the results. No stated cut-off is given here; in the data, active = 3.2 or more and inactive = the rest. The signal is at background level for most entries.
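Further: displayed peptides selected on beads carrying the immobilized SH2 domain, with library peptides lacking any tyrosine serving as negative controls.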

For one assay, the target named is SHP2 C-SH2 domain E139D. Kind of assay: enrichment score (SH2-bound / input frequency) (ratio); bacterial display of known human phosphotyrosine sites (pTyr-Var adds point mutants) read by sequencing; higher = stronger binding; tyrosines were phosphorylated by kinases first. The settings on record: peptide library: pTyr-Var.
As to DSSIRYLQEIF [FGG_Y135_YF], the enrichment score is inactive: 0.69.
In the case of VEDQFYRVDCF [FHL1_Y208_C209R_YF], the enrichment score is inactive: 0.855.
Still for that read-out and setting: under KPNMNYDKLSW [FLI1_Y332_R337W] stands inactive: 0.918.
On the same count and under the same terms, for PEADKYCLTFA [FGG_Y300_R301C_YF] the value was inactive: 0.664; for IDQDKYAVRFI [FLNA_Y2388], inactive: 0.823.
Same read-out and setting: for DQNVEYKGTVW [FHL1_Y117] the value was inactive: 0.726.
Turning to PGLSSYGVPAS [FLNB_Y1530], the enrichment score is inactive: 0.643.
For KGEDFYYVTCH [FHL1_Y149_C150Y], the enrichment score was inactive: 0.702.
The same measure, in the same setting: under YRVDCYKNFVA [FHL1_Y213_C209R] stands inactive: 1.04.
For GTYVIYVRFSG [FLNB_Y1687_G1691S], the enrichment score is inactive: 0.903.
Regarding DSSIRYLQEIH [FGG_Y135_Y140H], the enrichment score is inactive: 0.878.
The same measure, in the same setting: under FQGGTYSKAST [FGG_Y380_YF] stands inactive: 0.604; under AVEDQYYCVDC [FHL1_Y207], inactive: 1.5.
The same measure, in the same setting: under APQYTYAQGGQ [FLNA_Y1763] stands inactive: 0.558; under GTFVIYVRFSG [FLNB_Y1687_G1691S_YF], inactive: 0.427; under GEVLVYAEDPA [FLNA_Y319_V320A], inactive: 0.455.
Still for that read-out and setting: under VVDVTYDDVPI [FLNB_Y1308_E1305D] stands inactive: 0.707; under RMDGKYACSFT [FLNB_Y704_T703K_YF], inactive: 0.709.
On to HSVLQYVGGVM [FGGY_Y136], for which the enrichment score was inactive: 0.903.

Another assay deals with SHP2 C-SH2 domain wild-type. Described as above. The settings on record: peptide library: pTyr-Var.
Take DSSIRYLQEIF [FGG_Y135_YF]: the enrichment score was inactive: 0.687.
On the same count and under the same terms, for VEDQFYRVDCF [FHL1_Y208_C209R_YF] the value was inactive: 0.946; for KPNMNYDKLSW [FLI1_Y332_R337W], inactive: 0.924.
Consider PEADKYCLTFA [FGG_Y300_R301C_YF], for which the enrichment score is inactive: 0.838.
Same read-out and setting: under IDQDKYAVRFI [FLNA_Y2388] stands inactive: 0.668; under DQNVEYKGTVW [FHL1_Y117], inactive: 0.868.
Turning to PGLSSYGVPAS [FLNB_Y1530], the enrichment score is inactive: 0.608.
Take KGEDFYYVTCH [FHL1_Y149_C150Y]: the enrichment score was inactive: 1.05.
As to YRVDCYKNFVA [FHL1_Y213_C209R], the enrichment score was inactive: 1.03.
Still for that read-out and setting: for GTYVIYVRFSG [FLNB_Y1687_G1691S] the value was inactive: 0.896; for DSSIRYLQEIH [FGG_Y135_Y140H], inactive: 0.646.
Same read-out and setting: under FQGGTYSKAST [FGG_Y380_YF] stands inactive: 0.725; under AVEDQYYCVDC [FHL1_Y207], inactive: 1.54; under APQYTYAQGGQ [FLNA_Y1763], inactive: 0.813.
Still for that read-out and setting: under GTFVIYVRFSG [FLNB_Y1687_G1691S_YF] stands inactive: 0.645.
Consider GEVLVYAEDPA [FLNA_Y319_V320A], for which the enrichment score was inactive: 0.709.
The same measure, in the same setting: under VVDVTYDDVPI [FLNB_Y1308_E1305D] stands inactive: 0.641.
Same read-out and setting: under RMDGKYACSFT [FLNB_Y704_T703K_YF] stands inactive: 0.993; under HSVLQYVGGVM [FGGY_Y136], inactive: 0.877.

The target in a further assay is SHP2 N-SH2 domain L43F. The assay is described as above. The settings on record: peptide library: pTyr-Var.
Regarding DSSIRYLQEIF [FGG_Y135_YF], the enrichment score was inactive: 0.746.
On the same count and under the same terms, under VEDQFYRVDCF [FHL1_Y208_C209R_YF] stands inactive: 0.92.
On the same count and under the same terms, for KPNMNYDKLSW [FLI1_Y332_R337W] the value was inactive: 2.43; for PEADKYCLTFA [FGG_Y300_R301C_YF], inactive: 0.69; for IDQDKYAVRFI [FLNA_Y2388], inactive: 0.715.
In the case of DQNVEYKGTVW [FHL1_Y117], the enrichment score is inactive: 0.608.
As to PGLSSYGVPAS [FLNB_Y1530], the enrichment score is inactive: 0.819.
The same measure, in the same setting: under KGEDFYYVTCH [FHL1_Y149_C150Y] stands inactive: 0.801.
On the same count and under the same terms, under YRVDCYKNFVA [FHL1_Y213_C209R] stands inactive: 0.946.
On the same count and under the same terms, for GTYVIYVRFSG [FLNB_Y1687_G1691S] the value was inactive: 0.875; for DSSIRYLQEIH [FGG_Y135_Y140H], inactive: 0.736.
Consider FQGGTYSKAST [FGG_Y380_YF], for which the enrichment score is inactive: 0.509.
Still for that read-out and setting: for AVEDQYYCVDC [FHL1_Y207] the value was inactive: 1.6; for APQYTYAQGGQ [FLNA_Y1763], inactive: 0.493; for GTFVIYVRFSG [FLNB_Y1687_G1691S_YF], inactive: 0.621.
The same measure, in the same setting: for GEVLVYAEDPA [FLNA_Y319_V320A] the value was inactive: 0.474; for VVDVTYDDVPI [FLNB_Y1308_E1305D], inactive: 0.716; for RMDGKYACSFT [FLNB_Y704_T703K_YF], inactive: 0.841.
In the case of HSVLQYVGGVM [FGGY_Y136], the enrichment score was inactive: 0.961.

The target in another assay is SHP2 N-SH2 domain T42A. The assay is described as above. The note with it: peptide library: pTyr-Var.
For the molecule DSSIRYLQEIF [FGG_Y135_YF], the enrichment score was inactive: 0.768.
The same measure, in the same setting: under VEDQFYRVDCF [FHL1_Y208_C209R_YF] stands inactive: 0.717; under KPNMNYDKLSW [FLI1_Y332_R337W], inactive: 2.58.
Still for that read-out and setting: for PEADKYCLTFA [FGG_Y300_R301C_YF] the value was inactive: 0.619.
Same read-out and setting: for IDQDKYAVRFI [FLNA_Y2388] the value was inactive: 0.722.
On to DQNVEYKGTVW [FHL1_Y117], for which the enrichment score was inactive: 1.25.
The same measure, in the same setting: for PGLSSYGVPAS [FLNB_Y1530] the value was inactive: 0.507; for KGEDFYYVTCH [FHL1_Y149_C150Y], inactive: 0.645; for YRVDCYKNFVA [FHL1_Y213_C209R], inactive: 0.824.
The same measure, in the same setting: for GTYVIYVRFSG [FLNB_Y1687_G1691S] the value was inactive: 0.894.
On the same count and under the same terms, for DSSIRYLQEIH [FGG_Y135_Y140H] the value was inactive: 0.592.
For the molecule FQGGTYSKAST [FGG_Y380_YF], the enrichment score was inactive: 0.597.
On to AVEDQYYCVDC [FHL1_Y207], for which the enrichment score was inactive: 1.3.
Same read-out and setting: under APQYTYAQGGQ [FLNA_Y1763] stands inactive: 0.472; under GTFVIYVRFSG [FLNB_Y1687_G1691S_YF], inactive: 0.506; under GEVLVYAEDPA [FLNA_Y319_V320A], inactive: 0.816.
Take VVDVTYDDVPI [FLNB_Y1308_E1305D]: the enrichment score is inactive: 0.744.
Still for that read-out and setting: under RMDGKYACSFT [FLNB_Y704_T703K_YF] stands inactive: 0.755; under HSVLQYVGGVM [FGGY_Y136], inactive: 0.818.

A further assay has as its target SHP2 N-SH2 domain T52S. The description is as above. The settings on record: peptide library: pTyr-Var.
With DSSIRYLQEIF [FGG_Y135_YF], the enrichment score is inactive: 0.991.
The same measure, in the same setting: under VEDQFYRVDCF [FHL1_Y208_C209R_YF] stands inactive: 0.845.
The same measure, in the same setting: for KPNMNYDKLSW [FLI1_Y332_R337W] the value was inactive: 2.7; for PEADKYCLTFA [FGG_Y300_R301C_YF], inactive: 0.707; for IDQDKYAVRFI [FLNA_Y2388], inactive: 0.777.
Same read-out and setting: under DQNVEYKGTVW [FHL1_Y117] stands inactive: 0.689; under PGLSSYGVPAS [FLNB_Y1530], inactive: 0.656; under KGEDFYYVTCH [FHL1_Y149_C150Y], inactive: 0.766.
In the case of YRVDCYKNFVA [FHL1_Y213_C209R], the enrichment score is inactive: 0.841.
On the same count and under the same terms, under GTYVIYVRFSG [FLNB_Y1687_G1691S] stands inactive: 0.866; under DSSIRYLQEIH [FGG_Y135_Y140H], inactive: 0.756; under FQGGTYSKAST [FGG_Y380_YF], inactive: 0.627.
On the same count and under the same terms, under AVEDQYYCVDC [FHL1_Y207] stands inactive: 1.47.
For the molecule APQYTYAQGGQ [FLNA_Y1763], the enrichment score is inactive: 0.505.
For GTFVIYVRFSG [FLNB_Y1687_G1691S_YF], the enrichment score was inactive: 0.489.
Consider GEVLVYAEDPA [FLNA_Y319_V320A], for which the enrichment score was inactive: 0.859.
The same measure, in the same setting: under VVDVTYDDVPI [FLNB_Y1308_E1305D] stands inactive: 0.744; under RMDGKYACSFT [FLNB_Y704_T703K_YF], inactive: 0.803; under HSVLQYVGGVM [FGGY_Y136], inactive: 1.2.

The next assay addresses SHP2 N-SH2 domain wild-type. The assay is described as above. The note with it: peptide library: pTyr-Var.
Consider DSSIRYLQEIF [FGG_Y135_YF], for which the enrichment score was inactive: 0.602.
For VEDQFYRVDCF [FHL1_Y208_C209R_YF], the enrichment score was inactive: 1.12.
Turning to KPNMNYDKLSW [FLI1_Y332_R337W], the enrichment score was inactive: 0.932.
The same measure, in the same setting: under PEADKYCLTFA [FGG_Y300_R301C_YF] stands inactive: 1.44.
In the case of IDQDKYAVRFI [FLNA_Y2388], the enrichment score was inactive: 0.73.
Same read-out and setting: for DQNVEYKGTVW [FHL1_Y117] the value was inactive: 0.728.
On the same count and under the same terms, under PGLSSYGVPAS [FLNB_Y1530] stands inactive: 0.787; under KGEDFYYVTCH [FHL1_Y149_C150Y], inactive: 1.33.
Same read-out and setting: under YRVDCYKNFVA [FHL1_Y213_C209R] stands inactive: 1.03; under GTYVIYVRFSG [FLNB_Y1687_G1691S], inactive: 0.92.
In the case of DSSIRYLQEIH [FGG_Y135_Y140H], the enrichment score is inactive: 0.838.
Still for that read-out and setting: under FQGGTYSKAST [FGG_Y380_YF] stands inactive: 0.764.
Same read-out and setting: under AVEDQYYCVDC [FHL1_Y207] stands inactive: 1.35.
Consider APQYTYAQGGQ [FLNA_Y1763], for which the enrichment score is inactive: 0.62.
Same read-out and setting: under GTFVIYVRFSG [FLNB_Y1687_G1691S_YF] stands inactive: 0.805; under GEVLVYAEDPA [FLNA_Y319_V320A], inactive: 0.645.
On the same count and under the same terms, for VVDVTYDDVPI [FLNB_Y1308_E1305D] the value was inactive: 0.947; for RMDGKYACSFT [FLNB_Y704_T703K_YF], inactive: 0.889; for HSVLQYVGGVM [FGGY_Y136], inactive: 0.695.

(Values after the supplement of paper PMC10369915.)
